Measured values: the supplement of paper PMC10600219
Structures can show the parent of a compound that is named as a salt. Over roughly 2,800 compounds, “cell viability relative to vehicle” has its median near 0.98; the lowest 2% begin near 0.45. The list shows a part of the results.

Each molecule was assayed on NCI-H2228 alectinib-DTP (assay: cell viability relative to vehicle (fraction of vehicle); NCI-H2228 is an ALK-positive lung cancer line and DTP means drug-tolerant persister; higher = less growth inhibition). Conditions: 100 nM; treatment time 6 days.
Procedure, shortened: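 The 3114-agent TargetMol anti-cancer compound library was tested at 100 nM for 6 days on parental NCI-H2228 cells and on persister cells derived with 1000 nM of a targeted drug for 13 days. ATP readout by the CellTiter-Glo 3D Cell Viability Assay gave cell viability relative to DMSO vehicle-treated cells.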

| Compound | cell viability |
| --- | --- |
| OC[C@H]1O[C@@H](Oc2cc(O)cc(/C=C/c3ccc(O)cc3)c2)[C@H](O)[C@@H](O)[C@@H]1O [Polydatin] | 1.01 |
| O=c1c(-c2ccc(O)cc2)coc2cc(O[C@@H]3O[C@H](CO)[C@@H](O)[C@H](O)[C@H]3O)ccc12 [Daidzin] | 0.973 |
| CC(=O)Nc1nc(C)c(-c2ccc(Cl)c(S(=O)(=O)NCCO)c2)s1 | 0.889 |
| CCn1cc(-c2cccc(C(F)(F)F)c2)c2sc(C(=N)NC3CCS(=O)(=O)CC3)cc2c1=O | 1.06 |
| COc1ccc2[nH]c(-c3cccc(F)c3)cc(=O)c2c1OP(=O)(O)O | 0.523 |
| C[C@H]1C[C@@H]2[C@H]([C@@H](O)C[C@@]3(C)[C@H]2CC[C@]3(O)C(=O)CO)[C@@]2(C)C=CC(=O)C=C12 [Methylprednisolone] | 0.704 |
| COc1cc([C@@H]2c3cc4c(cc3[C@@H](O[C@@H]3O[C@@H]5CO[C@@H](C)O[C@H]5[C@H](O)[C@H]3O)[C@H]3COC(=O)[C@H]23)OCO4)cc(OC)c1O [Etoposide] | 0.97 |
| C[C@@]12C[C@H](c3ccoc3)O[C@@]13C[C@H](OC3=O)[C@H]1[C@H]2C[C@@H]2C[C@H]1C(=O)O2 [Diosbulbin B] | 0.979 |
| COc1cc(/C=C(\C#N)C(=O)Nc2nnc(C(F)(F)F)s2)ccc1OCc1ccc(C(F)(F)F)cc1C(F)(F)F | 1 |
| CNS(=O)(=O)C[C@H]1CC[C@H](N(C)c2[nH]cnc3nccc2-3)CC1 [Oclacitinib] | 0.937 |
| CN(C)C(=S)NN=C(c1ccccn1)c1ccccn1 | 0.45 |
| COc1ccccc1OCC(O)CN1CCN(CC(=O)Nc2c(C)cccc2C)CC1 (stereo unspecified) [Ranolazine] | 1.1 |
| O=C1c2ccc(Nc3ccc(F)cc3F)cc2CCc2ccc(OC[C@H](O)CO)cc21 [Skepinone-L] | 1.16 |
| NC(=O)C(c1ccccc1)(c1ccccc1)[C@@H]1CCN(CCc2ccc3c(c2)CCO3)C1 [Darifenacin HBr] | 0.993 |
| CCCNCC(O)COc1ccccc1C(=O)CCc1ccccc1 (stereo unspecified) [Propafenone] | 0.933 |
| CCn1c(=O)c(-c2cc[nH]n2)cc2c(C)nc(N)nc21 [Voxtalisib] | 0.86 |
| COc1nccc(-c2c(-c3ccc(F)cc3)ncn2C2CCNCC2)n1 | 1.04 |
| COc1cc2c(cc1-c1c(C)noc1C)ncc1[nH]c(=O)n([C@H](C)c3ccccn3)c12 | 0.896 |
| CN(C)c1nc(N(C)C)nc(N(C)C)n1 [Altretamine] | 1.1 |
| COc1c2c(cc3oc(CO[C@@H]4O[C@H](CO)[C@@H](O)[C@H](O)[C@H]4O)cc(=O)c13)O[C@H](C(C)(C)O)C2 [Cimifugin beta-D-glucopyranoside] | 0.952 |
| CC(C)(C)c1nc2c3cc[nH]c(=O)c3c3cc(F)ccc3c2[nH]1 [Pyridone 6] | 0.907 |
| CC(=O)O[C@]1(C(C)=O)CC[C@H]2[C@@H]3C[C@H](C)C4=CC(=O)CC[C@]4(C)[C@H]3CC[C@@]21C [Medroxyprogesterone Acetate] | 0.833 |
| O=C(O)c1cc(-c2ccccc2)nc2ccccc12 [Cinchophen] | 0.968 |
| COc1cc2c(Oc3ccc4[nH]c(C)cc4c3F)ncnc2cc1OCCCN1CCCC1 [Cediranib] | 0.891 |
| O=c1nc(N2CCN(CC3CCCCC3)CC2)sc2c([N+](=O)[O-])cc(C(F)(F)F)cc12 | 0.985 |
| COc1ccc(C(NC(=O)c2cnc(-c3cccnn3)[nH]c2=O)c2ccc(OC)cc2)cc1 | 0.898 |

| Compound | cell viability |
| --- | --- |
| Nc1nc(NCCc2ccc(O)cc2)nc2nc(-c3ccco3)nn12 | 1.13 |
| Cc1nc(-c2cn3c(n2)-c2ccc(-c4cnn(C(C)(C)C(N)=O)c4)cc2OCC3)n(C(C)C)n1 [Taselisib] | 0.425 |
| Cc1c(F)cc(C(=O)NC2CC2)cc1-c1ccc(C(=O)NCC(C)(C)C)cn1 [Losmapimod] | 0.986 |
| CNC(C)C1CCC(N)C(OC2C(N)CC(N)C(OC3OCC(C)(O)C(NC)C3O)C2O)O1 (stereo unspecified) [Gentamycin sulfate] | 0.869 |
| COc1ccc(S(=O)(=O)N(C(C)=O)c2ccccc2/C=C/c2cc[n+]([O-])cc2)cc1 | 0.926 |
| CC1(C)CC[C@]2(C(=O)O)CC[C@]3(C)C(=CC[C@@H]4[C@@]5(C)CC[C@H](O)[C@@](C)(CO)[C@@H]5CC[C@]43C)[C@@H]2C1 [Hederagenin] | 1.17 |
| Cc1cc(C)c(/C=C2\C(=O)Nc3ccccc32)[nH]1 [Semaxanib] | 0.807 |
| O=C(NOC[C@H](O)CO)c1ccc(F)c(F)c1Nc1ccc(I)cc1F | 0.773 |
| O=C1CC2(CCCC2)CC(=O)N1CCCCN1CCN(c2ncccn2)CC1 [Buspirone hydrochloride] | 1.04 |
| COc1ccc2c(c1)C(c1ccc(F)cc1)=C(CN1CCCC1)CO2 | 1.19 |
| CCC(=O)Oc1ccc2c(c1)CCC1C2CCC2(C)C(OC(=O)CC)CCC12 (stereo not drawn) [17-Beta-Estradiol-3,17-Dipropionate] | 1.18 |
| Nc1ncnc2c1c(I)cn2[C@@H]1O[C@H](CO)[C@@H](O)[C@H]1O [5-Iodotubercidin] | 0.929 |
| C[C@H](CCC(=O)O)[C@H]1CC[C@H]2[C@@H]3CC[C@@H]4C[C@H](O)CC[C@]4(C)[C@H]3C[C@H](O)[C@]12C [Deoxycholic acid] | 1.12 |
| Nc1ccc2cc3ccc(N)cc3nc2c1 [Proflavine Hemisulfate] | 1.23 |
| O=C(NCCCNc1nc(Nc2cccc(CN3CCOCC3)c2)ncc1C1CC1)C1CCC1 | 0.948 |
| Cc1cc(CC(=O)O)n(C)c1C(=O)c1ccc(Cl)cc1 [Zomepirac Sodium] | 0.967 |
| CN1CCN(CCOc2cc(OC3CCOCC3)c3c(Nc4c(Cl)ccc5c4OCO5)ncnc3c2)CC1 [Saracatinib] | 0.998 |
| CCOCC(O)COc1ccc(NC(=O)CC[S+](C)C)cc1 (stereo unspecified) [Suplatast tosilate] | 0.952 |
| O=C(O)c1ccc(CN2CCC(CN[C@@H]3C[C@H]3c3ccccc3)CC2)cc1 | 0.994 |
| O=C(/C=C\n1cnc(-c2cc(C(F)(F)F)cc(C(F)(F)F)c2)n1)NNc1ccccn1 [Verdinexor] | 0.835 |
| O=C(CCCCCCNC(=O)c1cnc(N(c2ccccc2)c2ccccc2Cl)nc1)NO [Citarinostat] | 1 |
| CC1Cc2ccccc2N1NC(=O)c1ccc(Cl)c(S(N)(=O)=O)c1 (stereo unspecified) [Indapamide] | 1.01 |
| CCC(=O)c1c(O)cc(O)cc1O [Flopropione] | 1.17 |
| C=CC(=O)Nc1ccc2ncnc(Nc3cccc(Br)c3)c2c1 | 0.726 |
| N#Cc1ccnc(N2C(=O)CC[C@H]2C(=O)N(c2cncc(F)c2)[C@H](C(=O)NC2CC(F)(F)C2)c2ccccc2Cl)c1 [Ivosidenib] | 0.978 |
| CNC(=O)c1cnn(-c2nc(N)c3ncn([C@@H]4O[C@H](CO)[C@@H](O)[C@H]4O)c3n2)c1 [Regadenoson] | 0.93 |

| Compound | cell viability |
| --- | --- |
| O=c1cc(-c2ccc(O)c(-c3c(O)cc(O)c4c(=O)cc(-c5ccc(O)cc5)oc34)c2)oc2cc(O)cc(O)c12 [Amentoflavone] | 0.999 |
| COc1ccc(CCC(=O)c2ccc(O)cc2)c(OC)c1 [Loureirin A] | 0.94 |
| COc1ccccc1S(=O)(=O)Nc1ccc2c(c1)CN(C)C(=O)N2 | 1.13 |
| C1CCN2C[C@@H]3C[C@@H](CN4CCCC[C@@H]34)[C@H]2C1 [(-)-Sparteine sulfate pentahydrate] | 0.87 |
| CCN1CCN(c2cc3c(cc2F)c(=O)c(C(=O)O)cn3C2CC2)CC1 [Enrofloxacin] | 0.897 |
| CN(C(=O)CNC(=O)/C=C/c1cccc(Cl)c1)C1CCS(=O)(=O)CC1 | 0.805 |
| FC(F)c1nc2ccccc2n1-c1nc(N2CCOCC2)nc(N2CCOCC2)n1 | 0.837 |
| COc1ccc(/C=C/C(=O)c2c(O)cc(OC)cc2OC)cc1 [Flavokawain A] | 1.13 |
| NC(=O)Cc1cc[nH]n1 [1H-Pyrazole-3-acetamide] | 0.863 |
| COc1cc(NS(C)(=O)=O)ccc1Nc1c2ccccc2nc2ccccc12 [Amsacrine] | 0.71 |
| CN(C)c1ccc(/C=C2/C(=O)Nc3ccccc32)cc1 | 1.03 |
| Cc1nnc(NS(=O)(=O)c2ccc(N)cc2)s1 [Sulfamethizole] | 1.05 |
| O=C(O)COC(=O)Cc1ccccc1Nc1c(Cl)cccc1Cl [Aceclofenac] | 1.09 |
| CC(C)Oc1ccc(C(=O)N[C@H](CNC(=O)CN(C)C)Cc2ccc(-c3cn4cccc([C@H](C)O)c4n3)cc2)cc1Cl | 0.665 |
| CC1(C)OCCn2c1nc1c(N3CCOCC3)nc(-c3cnc(N)nc3)nc12 | 0.684 |
| C[C@@H]1C[C@H]2[C@@H]3CCC4=CC(=O)C=C[C@]4(C)[C@@]3(F)[C@@H](O)C[C@]2(C)[C@@]1(O)C(=O)CO [Dexamethasone] | 0.859 |
| COc1cc(O)cc(O)c1C(=O)/C=C/c1ccccc1 [Cardamonin] | 1.05 |
| CC1(C)O[C@@H]2C[C@H]3[C@@H]4CCC5=CC(=O)C=C[C@]5(C)[C@@]4(F)[C@@H](O)C[C@]3(C)[C@]2(C(=O)CO)O1 [Triamcinolone acetonide] | 0.706 |
| O=C(O)CCCc1ccccc1 [Sodium Phenylbutyrate] | 0.97 |
| Cc1cnc(NC(=O)C2=C(O)c3ccccc3S(=O)(=O)N2C)s1 [Meloxicam] | 0.968 |
| COc1cc(O)c(C(=O)Nc2nc(C(=O)NCCN(C(C)C)C(C)C)cs2)cc1OC [Acotiamide hydrochloride] | 0.908 |
| Cc1cc([C@@H](C)Nc2ccccc2C(=O)O)c2nc(N3CCOCC3)cc(=O)n2c1 | 0.757 |
| CC(C)(Oc1ccc(C(=O)c2ccc(Cl)cc2)cc1)C(=O)O [Fenofibric acid] | 1.01 |
| CCOc1nc2cccc(C(=O)O)c2n1Cc1ccc(-c2ccccc2-c2noc(=O)[nH]2)cc1 [Azilsartan] | 1.17 |
